To fix the notation:
T1: RBFOX1 RRM RbFoxmut (Fox-RRM*) (Homo sapiens, UniProt Q9NWB1 109-208, R118D;E147R;N151S;E152T)
T1 sequence: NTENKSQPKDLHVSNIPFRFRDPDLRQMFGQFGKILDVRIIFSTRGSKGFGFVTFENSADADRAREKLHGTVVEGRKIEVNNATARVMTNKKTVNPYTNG

B1: UGUUAGG (DNA:RNA)
RNA: GGGAGACCGGAAUUCAGAUUGUCCUGUUAGGUUAAAUCCCGUCGUAGCCACCA
DNA 1: CAATCTGAATTCCGGTCTCCC
DNA 2: TGGTGGCTACGACGGGATT
B2: ACCGGCU (DNA:RNA)
RNA: GGGAGACCGGAAUUCAGAUUGUCCACCGGCUUUAAAUCCCGUCGUAGCCACCA
DNA 1: CAATCTGAATTCCGGTCTCCC
DNA 2: TGGTGGCTACGACGGGATT
B3: AACAUGG (DNA:RNA)
RNA: B2 RNA with C26A, G28A, G29U, C30G, U31G
DNA 1: CAATCTGAATTCCGGTCTCCC
DNA 2: TGGTGGCTACGACGGGATT
B4: CGGCCAC (DNA:RNA)
RNA: B1 RNA with U25C, U27G, U28C, A29C, G30A, G31C
DNA 1: CAATCTGAATTCCGGTCTCCC
DNA 2: TGGTGGCTACGACGGGATT
B5: CAACAUG (DNA:RNA)
RNA: B1 RNA with U25C, G26A, U27A, U28C, G30U
DNA 1: CAATCTGAATTCCGGTCTCCC
DNA 2: TGGTGGCTACGACGGGATT
B6: GUCUGCA (DNA:RNA)
RNA: B2 RNA with A25G, C26U, G28U, U31A
DNA 1: CAATCTGAATTCCGGTCTCCC
DNA 2: TGGTGGCTACGACGGGATT
B7: GUUGACC (DNA:RNA)
RNA: B2 RNA with A25G, C26U, C27U, G29A, U31C
DNA 1: CAATCTGAATTCCGGTCTCCC
DNA 2: TGGTGGCTACGACGGGATT
B8: CUUGUAG (DNA:RNA)
RNA: B1 RNA with U25C, G26U, U28G, A29U, G30A
DNA 1: CAATCTGAATTCCGGTCTCCC
DNA 2: TGGTGGCTACGACGGGATT
B9: CCUACGA (DNA:RNA)
RNA: B1 RNA with U25C, G26C, U28A, A29C, G31A
DNA 1: CAATCTGAATTCCGGTCTCCC
DNA 2: TGGTGGCTACGACGGGATT
B10: GGUCGCG (DNA:RNA)
RNA: B1 RNA with U25G, U28C, A29G, G30C
DNA 1: CAATCTGAATTCCGGTCTCCC
DNA 2: TGGTGGCTACGACGGGATT
B11: GAGCGGC (DNA:RNA)
RNA: B2 RNA with A25G, C26A, C27G, G28C, C30G, U31C
DNA 1: CAATCTGAATTCCGGTCTCCC
DNA 2: TGGTGGCTACGACGGGATT
B12: CGCUUAC (DNA:RNA)
RNA: B1 RNA with U25C, U27C, A29U, G30A, G31C
DNA 1: CAATCTGAATTCCGGTCTCCC
DNA 2: TGGTGGCTACGACGGGATT
B13: AUCAUCU (DNA:RNA)
RNA: B2 RNA with C26U, G28A, G29U
DNA 1: CAATCTGAATTCCGGTCTCCC
DNA 2: TGGTGGCTACGACGGGATT
B14: UAUUACA (DNA:RNA)
RNA: B1 RNA with G26A, G30C, G31A
DNA 1: CAATCTGAATTCCGGTCTCCC
DNA 2: TGGTGGCTACGACGGGATT
B15: GCUGGUU (DNA:RNA)
RNA: B2 RNA with A25G, C27U, C30U
DNA 1: CAATCTGAATTCCGGTCTCCC
DNA 2: TGGTGGCTACGACGGGATT
B16: GUUCAGC (DNA:RNA)
RNA: B1 RNA with U25G, G26U, U28C, G31C
DNA 1: CAATCTGAATTCCGGTCTCCC
DNA 2: TGGTGGCTACGACGGGATT
B17: UCGUAUG (DNA:RNA)
RNA: B1 RNA with G26C, U27G, G30U
DNA 1: CAATCTGAATTCCGGTCTCCC
DNA 2: TGGTGGCTACGACGGGATT
B18: CUAGUUG (DNA:RNA)
RNA: B2 RNA with A25C, C26U, C27A, G29U, C30U, U31G
DNA 1: CAATCTGAATTCCGGTCTCCC
DNA 2: TGGTGGCTACGACGGGATT
B19: GAAAGUC (DNA:RNA)
RNA: B2 RNA with A25G, C26A, C27A, G28A, C30U, U31C
DNA 1: CAATCTGAATTCCGGTCTCCC
DNA 2: TGGTGGCTACGACGGGATT
B20: CUGCGGC (DNA:RNA)
RNA: B2 RNA with A25C, C26U, C27G, G28C, C30G, U31C
DNA 1: CAATCTGAATTCCGGTCTCCC
DNA 2: TGGTGGCTACGACGGGATT

Positions count from the first letter of the chain named. This is one part of the list.

The test has as its target T1, RBFOX1 RRM RbFoxmut (Fox-RRM*). As to the kind of experiment: EMSA; HiTS-Eq, 1 nM pool, 10 min; buffer printed only for the single-RNA assays: 10 mM Tris pH 7.5, 150 mM NaCl, 3.4 mM EDTA, 0.001% NP-40, 30 C. The following applies: tags: His6 N-terminal (pET28a); label: 5' 32P. The method in brief: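 A pool of RNA with 7 randomized nucleotides, 5′-radiolabelled and with DNA-annealed flanks, was equilibrated at 1 nM for 10 min in 50 µL with purified RbFox RRM, wild type or mutant, across increasing protein concentrations. Free RNA was separated by 8% native PAGE, excised, reverse-transcribed, barcoded by PCR and sequenced. Relative association constants were obtained from read-count changes of each RNA species versus the control reaction and normalised to the cognate motif.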
On to B1, for which the binding signal is 0.0799 KA relative to UGCAUGU.

In the case of B2, the binding signal was 0.0704 KA relative to UGCAUGU.

Consider B3, for which the binding signal was 0.0845 KA relative to UGCAUGU.

Turning to B4, the binding signal was 0.0504 KA relative to UGCAUGU.

Turning to B5, the binding signal was 0.143 KA relative to UGCAUGU.

With B6, the binding signal was 0.218 KA relative to UGCAUGU.

As for B7, the binding signal is 0.0685 KA relative to UGCAUGU.

Take B8: the binding signal is 0.176 KA relative to UGCAUGU.

B9: the binding signal is 0.067 KA relative to UGCAUGU.

For the molecule B10, the binding signal is 0.161 KA relative to UGCAUGU.

In the case of B11, the binding signal was 0.109 KA relative to UGCAUGU.

With B12, the binding signal is 0.132 KA relative to UGCAUGU.

Take B13: the binding signal was 0.072 KA relative to UGCAUGU.

Consider B14, for which the binding signal was 0.0909 KA relative to UGCAUGU.

Take B15: the binding signal was 0.105 KA relative to UGCAUGU.

On to B16, for which the binding signal was 0.0923 KA relative to UGCAUGU.

For B17, the binding signal was 0.87 KA relative to UGCAUGU.

Take B18: the binding signal is 0.142 KA relative to UGCAUGU.

Take B19: the binding signal was 0.0432 KA relative to UGCAUGU.

For the molecule B20, the binding signal was 0.0957 KA relative to UGCAUGU.

For the origin of these results see paper PMC9911399, “Two distinct binding modes provide the RNA-binding protein RbFox with extraordinary sequence specificity”.
